# Measurements published in the supplement of paper PMC8728848.
# The other results are listed elsewhere or left out.
# B1: PkBDPgamma (Plasmodium knowlesi) (protein)
# chain: SAINQIFLQNNVMDKCNDKRKRGERDWDCPTEKDVCIPDRRYQLCMMEITNLVDTDTHFHSDIIFRKSYSRRRLIYDVGGRGDLLLKKYNNVYSEDLCKDIKWSLQDFGDIIMGTDMEGIGYSLVVQNNLRSIFGTGTSAELDRKKWWNDHKKDIWKAMILSVKEKNRYSAWNCKEDVQIKVEPQIYRWIREWGRDYMSEFREQRRKLNEKCEDKLYYSTMLICTLPPCNNACKSYDEWITGKKKQWDVLSTKFSSVKKAQKIETENIARAYDILKQELNGFNEVTFENEINKRDKLYNYFCVCIVQEARKNTQENVKNVGSGVESKAPSSNPINEAVKSSSGEGKVQEDSAHRSVNEGEGKSSTNEADPGSQPGAAASGGGSGGGTGGGVDLAPQMLRELQETNAALQDVRELLRQQVKEITFLKNTVMECDACGGPLDRNLPPLAPLGPTGGWSHPQFEK
# Experiments:
# Assay in all cases: glycan array binding signal (z-score within array); higher = stronger binding
# Conditions in all cases: glycan notation: IUPAC condensed, linker removed
# [1] = target: Kdn(a2-3)Gal(b1-3)GlcNAc
# In short: (§1)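 Glycan array binding is given as a within-array Z-score, which can be read as non-binding when negative. The arrays, 3228 of them, came from the Consortium for Functional Glycomics database and were retained only where the protein sequence was available. Z-scores were averaged across arrays of the same protein sequence at different concentrations or buffers and across linkers.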
# [2] = target: Kdn(a2-3)Gal(b1-4)Glc
# In short: as §1
# [3] = target: Kdn(a2-3)Gal(b1-4)GlcNAc
# In short: as §1
# [4] = target: Kdn(a2-3)Gal(b1-4)[Fuc(a1-3)]GlcNAc
# In short: as §1
# [5] = target: Kdn(a2-6)Gal(b1-4)GlcNAc
# In short: as §1
# [6] = target: Man(a1-2)Man(a1-2)Man(a1-3)Man
# In short: as §1
# [7] = target: Man(a1-2)Man(a1-2)Man(a1-6)[Man(a1-3)]Man
# In short: as §1
# [8] = target: Man(a1-2)Man(a1-3)Man
# In short: as §1
# [9] = target: Man(a1-2)Man(a1-3)[Man(a1-2)Man(a1-6)]Man
# In short: as §1
# [10] = target: Man(a1-2)Man(a1-3)[Man(a1-2)Man(a1-6)]Man(a1-6)[Man(a1-2)Man(a1-2)Man(a1-3)]Man
# In short: as §1
# [11] = target: Man(a1-2)Man(a1-3)[Man(a1-2)Man(a1-6)]Man(a1-6)[Man(a1-2)Man(a1-2)Man(a1-3)]Man(b1-4)GlcNAc(b1-4)GlcNAc
# In short: as §1
# [12] = target: Man(a1-2)Man(a1-3)[Man(a1-6)]Man(a1-6)[Man(a1-2)Man(a1-3)]Man(b1-4)GlcNAc(b1-4)GlcNAc
# In short: as §1
# [13] = target: Man(a1-2)Man(a1-6)[Man(a1-3)]Man(a1-6)[Man(a1-2)Man(a1-2)Man(a1-3)]Man
# In short: as §1
# [14] = target: Man(a1-2)Man(a1-6)[Man(a1-3)]Man(a1-6)[Man(a1-2)Man(a1-2)Man(a1-3)]Man(b1-4)GlcNAc(b1-4)GlcNAc
# In short: as §1
# [15] = target: Man(a1-3)[Man(a1-6)]Man
# In short: as §1
# [16] = target: Man(a1-3)[Man(a1-6)]Man(a1-6)[Man(a1-2)Man(a1-3)]Man(b1-4)GlcNAc(b1-4)GlcNAc
# In short: as §1
# [17] = target: Man(a1-3)[Man(a1-6)]Man(a1-6)[Man(a1-3)]Man
# In short: as §1
# [18] = target: Man(a1-3)[Man(a1-6)]Man(a1-6)[Man(a1-3)]Man(b1-4)GlcNAc(b1-4)GlcNAc
# In short: as §1
# [19] = target: Man(a1-3)[Man(a1-6)]Man(b1-4)GlcNAc(b1-4)GlcNAc
# In short: as §1
# [20] = target: Man(a1-3)[Man(a1-6)]Man(b1-4)GlcNAc(b1-4)[Fuc(a1-6)]GlcNAc
# In short: as §1
# [21] = target: Man(a1-6)Man
# In short: as §1
# [22] = target: Man(b1-4)GlcNAc
# In short: as §1
# [23] = target: MurNAc(b1-4)GlcNAc
# In short: as §1
# [24] = target: Neu5Ac(a2-3)Gal
# In short: as §1
# [25] = target: Neu5Ac(a2-3)Gal(b1-3)GalNAc
# In short: as §1
# [26] = target: Neu5Ac(a2-3)Gal(b1-3)GalNAc(b1-3)Gal(a1-4)Gal(b1-4)Glc
# In short: as §1
# [27] = target: Neu5Ac(a2-3)Gal(b1-3)GalNAc(b1-4)Gal(b1-4)Glc
# In short: as §1
# [28] = target: Neu5Ac(a2-3)Gal(b1-3)GalNAc(b1-4)[Neu5Ac(a2-3)]Gal(b1-4)Glc
# In short: as §1
# [29] = target: Neu5Ac(a2-3)Gal(b1-3)GalNAc(b1-4)[Neu5Ac(a2-8)Neu5Ac(a2-3)]Gal(b1-4)Glc
# In short: as §1
# [30] = target: Neu5Ac(a2-3)Gal(b1-3)GalNAc6S
# In short: as §1
# [31] = target: Neu5Ac(a2-3)Gal(b1-3)GlcNAc
# In short: as §1
# [32] = target: Neu5Ac(a2-3)Gal(b1-3)GlcNAc(b1-2)Man
# In short: as §1
# [33] = target: Neu5Ac(a2-3)Gal(b1-3)GlcNAc(b1-2)Man(a1-3)[GlcNAc(b1-4)][Neu5Ac(a2-3)Gal(b1-3)GlcNAc(b1-2)Man(a1-6)]Man(b1-4)GlcNAc(b1-4)GlcNAc
# In short: as §1
# [34] = target: Neu5Ac(a2-3)Gal(b1-3)GlcNAc(b1-2)Man(a1-3)[Neu5Ac(a2-3)Gal(b1-3)GlcNAc(b1-2)Man(a1-6)]Man(b1-4)GlcNAc(b1-4)GlcNAc
# In short: as §1
# [35] = target: Neu5Ac(a2-3)Gal(b1-3)GlcNAc(b1-2)[Neu5Ac(a2-3)Gal(b1-3)GlcNAc(b1-4)]Man(a1-6)[Neu5Ac(a2-3)Gal(b1-3)GlcNAc(b1-2)Man(a1-3)]Man(b1-4)GlcNAc(b1-4)GlcNAc
# In short: as §1
# [36] = target: Neu5Ac(a2-3)Gal(b1-3)GlcNAc(b1-3)Gal(b1-3)GlcNAc
# In short: as §1
# [37] = target: Neu5Ac(a2-3)Gal(b1-3)GlcNAc(b1-3)Gal(b1-4)GlcNAc
# In short: as §1
# [38] = target: Neu5Ac(a2-3)Gal(b1-3)GlcNAc(b1-3)GalNAc
# In short: as §1
binder,measurement,setting,value
B1,glycan array binding signal (z-score),[1],-0.196
same,glycan array binding signal (z-score),[2],-0.465
same,glycan array binding signal (z-score),[3],0.127
same,glycan array binding signal (z-score),[4],-0.399
same,glycan array binding signal (z-score),[5],0.227
same,glycan array binding signal (z-score),[6],-0.441
same,glycan array binding signal (z-score),[7],0.045
same,glycan array binding signal (z-score),[8],-0.276
same,glycan array binding signal (z-score),[9],-0.09
same,glycan array binding signal (z-score),[10],-0.391
same,glycan array binding signal (z-score),[11],-0.427
same,glycan array binding signal (z-score),[12],-0.597
same,glycan array binding signal (z-score),[13],-0.277
same,glycan array binding signal (z-score),[14],-0.129
same,glycan array binding signal (z-score),[15],0.004
same,glycan array binding signal (z-score),[16],-0.149
same,glycan array binding signal (z-score),[17],0.071
same,glycan array binding signal (z-score),[18],0.232
same,glycan array binding signal (z-score),[19],-0.114
same,glycan array binding signal (z-score),[20],-0.208
same,glycan array binding signal (z-score),[21],-0.224
same,glycan array binding signal (z-score),[22],-0.344
same,glycan array binding signal (z-score),[23],-0.109
same,glycan array binding signal (z-score),[24],-0.679
same,glycan array binding signal (z-score),[25],0.062
same,glycan array binding signal (z-score),[26],0.186
same,glycan array binding signal (z-score),[27],-0.635
same,glycan array binding signal (z-score),[28],-0.377
same,glycan array binding signal (z-score),[29],-0.132
same,glycan array binding signal (z-score),[30],-0.295
same,glycan array binding signal (z-score),[31],0.141
same,glycan array binding signal (z-score),[32],-0.43
same,glycan array binding signal (z-score),[33],0.175
same,glycan array binding signal (z-score),[34],0.171
same,glycan array binding signal (z-score),[35],-0.244
same,glycan array binding signal (z-score),[36],-0.352
same,glycan array binding signal (z-score),[37],-0.417
same,glycan array binding signal (z-score),[38],-0.301
